Source: PubChem BioAssay AID651820 (National Center for Advancing Translational Sciences (NCATS), 2012)
Screen size: about 340,000 compounds; about 12,000 (3.5%) were called active. Inconclusive results, whose numbers are uncertain, are shown with a selection of clear calls. Calls follow the shape of the dose curve; as a rule, active = well fitted inhibition curve with a large enough effect; inconclusive = small, poorly fitted or top-dose-only effect, or another doubt; inactive = no such curve, though single readings can be large or run the other way. No potency is given beside an inconclusive call; the fits are too rough.

Assay: qHTS Assay for Inhibitors of Hepatitis C Virus (HCV)
Details: Huh7.5.1 HCVcc-Cre (HCVcc is cell-culture hepatitis C virus) infection, luciferase reporter, 44 h; series mostly up to 41.8 µM
Procedure, shortened: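 A cell-based infection assay in which seeded cells (1,000 per well) receive test compound after 4 h, are inoculated with HCVcc-Cre at approximately 0.5 moi, and are incubated 44 h before luminescence detection.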
Potency is read from the fitted curve at half-maximal effect; tags tell the direction and shape of the fitted curve.

Question: Which Potency does the source give for CCCNS(=O)(=O)c1ccc(CCC(=O)Nc2ccc3c(c2)OCCO3)cc1 here?
Answer: inconclusive [inhibitor, single point]

Question: Which Potency does the source give for COc1ccc(CCNc2oc(COc3ccc(Br)cc3)nc2C#N)cc1OC here?
Answer: inconclusive [inhibitor, single point]

Question: For COc1cccc(-c2sc3ccccc3c2-c2ccc(OCCN(C)C)cc2)c1, which Potency is on record?
Answer: active: 11.2 µM

Question: With Cc1ccccc1CNC(=O)C(=O)NCCC1CCCCN1S(=O)(=O)c1cccs1 (centres undefined) as the molecule, how does the Potency read?
Answer: inconclusive [inhibitor, single point]

Question: Which Potency does the source give for COCCCNC(=S)NNC(=O)c1ccccn1 here?
Answer: inconclusive [inhibitor, single point]

Question: With Clc1c(-c2nnc3n2CCC3)sc2ccccc12 as the molecule, how does the Potency read?
Answer: inconclusive [inhibitor, partial curve]

Question: For COc1ccc(CN2CCCC(C(=O)Nc3cccc(-n4cccn4)c3)C2)c(F)c1 (centres undefined), which Potency is on record?
Answer: inconclusive [inhibitor, single point]

Question: With O=[N+]([O-])c1ccc(-c2ccc(/C=N/Nc3nc(NCc4ccccc4)nc(N4CCOCC4)n3)o2)cc1 as the molecule, how does the Potency read?
Answer: inconclusive [inhibitor, partial curve]

Question: For C=CCNC(=S)Nc1cccc(N)c1, which Potency is on record?
Answer: inconclusive [inhibitor, full curve]

Question: With CCN(CC)CCNC(=O)c1ccc(N2CCCCC2)c(NS(=O)(=O)c2ccc(C)cc2)c1 as the molecule, how does the Potency read?
Answer: active: 11.2 µM

Question: With O=C(OC1CCCCC1)c1ccc(NC(=O)C2CCCCC2)cc1 as the molecule, how does the Potency read?
Answer: active: 25.1 µM

Question: Which Potency does the source give for COC(=O)c1ccc(NC(=O)COc2ccc(C3C(C#N)=C(N)Oc4c3ccc3ccccc43)cc2OC)cc1 (centres undefined) here?
Answer: inconclusive [inhibitor, full curve]

Question: With Cc1cccnc1NC(=O)c1cccc(S(=O)(=O)N2CCCc3ccccc32)c1 as the molecule, how does the Potency read?
Answer: inactive

Question: Which Potency does the source give for COc1cc2c(cc1OC)C(C)N(C(=S)NC(=O)c1ccccc1)CC2 (centres undefined) here?
Answer: inconclusive [inhibitor, single point]

Question: Which Potency does the source give for CCC(=O)c1ccc2c(c1)N(CCCN(C)C)c1ccccc1S2 here?
Answer: inconclusive [inhibitor, single point]

Question: Which Potency does the source give for c1ccc(CNc2nc(-c3ccccc3)nc3ccccc23)cc1 here?
Answer: inconclusive [inhibitor, single point]

Question: With O=C(NC1CCCCCC1)c1ccc(Cl)c(S(=O)(=O)N2CCOCC2)c1 as the molecule, how does the Potency read?
Answer: inactive

Question: With Cc1ccccc1C(=O)c1cccn1CC(=O)NCC1CCCO1 (centres undefined) as the molecule, how does the Potency read?
Answer: inactive

Question: For Cc1ccc(C(=O)Nc2nc(C(C)(C)C)cs2)s1, which Potency is on record?
Answer: inconclusive [inhibitor, single point]
